For one assay, the system named is Notch4. Put plainly: Notch4-GAL4 luciferase reporter assay, comparison with polyclonal antibody N-17. To be noted: 0.01-10 μg/mL, DLL4 stimulated reporter cells, 22 hours. The format is cell-based, human. On the procedure: Next, signal inhibitory activities of polyclonal anti-human Notch4 antibody (Santa Cruz, SC8643, hereinafter N-17) and Antibody B were compared with Notch4-GAL4 luciferase reporter assay system.
Slide-A-Lyzer (Thermo scientific, 66333) was employed to perform dialysis at 4° C. for 8 hours in PBS in order to remove sodium azide contained in N-17. After concentrating the dialyzed N-17 solution with Amicon Ultra (Millipore, UFC503096), and the concentration was measured with a microspectrophotometer (Nano Drop, Thermo).
Recombinant human DLL4 (R&D Systems, 1506-D4-050/CF) was dissolved in PBS to prepare a 10 μg/mL solution (hereinafter DLL4 solution). […] The luciferase activity of the reporter cells were evaluated with Steady-Glo Assay System (Promega, E2510) as follows.
One hundred microliters of Steady-Glo solution was added to each well after culturing, stirred, and then left at room temperature for 30 minutes. Luminescence was measured with Multilabel Plate Reader (Envision 2102-0020, Perkin Elmer). Relative luminescence was calculated from the measured luminescence value by the following formula. Relative luminescence (%)=(Luminescence intensity of the specimen well−Average luminescence intensity of non-stimulated wells)/(Average luminescence intensity of control wells−Average luminescence intensity of non-stimulated wells)
For orientation: A reporter such as luciferase makes a cellular process visible.

Assay [1] addresses T1, Human Notch4-NRR Fusion Protein (Homo sapiens, UniProt Q99466).
T1 construct: Human Notch4-NRR domain Fc fusion proteins were expressed with a CHO cell line; Fc; made in house; host or cells: CHO cell line (antigen captured from culture supernatant)
T1 sequence (Q99466 1046-1445 limits assumed): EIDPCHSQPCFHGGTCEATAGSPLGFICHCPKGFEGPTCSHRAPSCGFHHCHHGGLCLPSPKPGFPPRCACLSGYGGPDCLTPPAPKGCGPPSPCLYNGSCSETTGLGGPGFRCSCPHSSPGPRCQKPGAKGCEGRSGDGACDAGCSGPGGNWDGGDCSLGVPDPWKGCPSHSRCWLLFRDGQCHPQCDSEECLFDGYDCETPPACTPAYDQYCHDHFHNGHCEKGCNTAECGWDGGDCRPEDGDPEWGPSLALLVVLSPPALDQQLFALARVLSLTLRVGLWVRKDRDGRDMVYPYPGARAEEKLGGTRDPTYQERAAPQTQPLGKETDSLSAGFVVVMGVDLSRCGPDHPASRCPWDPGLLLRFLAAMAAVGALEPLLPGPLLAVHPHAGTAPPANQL
Briefly: Kinetic analysis, captured Human Notch4-NRR Fc fusion protein, humanized antibody injected. The format is binding. To be noted: Table 30, Human Notch4-NRR Fc fusion. On the procedure: Kinetic analysis of further anti-Notch4 inhibitory humanized antibodies was carried out as follows. Human Notch4-NRR domain Fc fusion proteins were expressed with a CHO cell line. The antigen in the culture supernatant was captured by the anti-human Notch4 antibody fixed on a CM5 sensor chip that recognizes different epitopes of human Notch4. The humanized anti-human Notch4 antibody was then injected onto the sensor chip at various concentrations. The interaction and disassociation constants thereof were calculated according to manufacturer's instructions.
In the table below, e.g. the description “HK2L3 (Lys-)” means that the heavy chain variable region of the humanized anti-human Notch4 antibody employed in the experiment is the heavy chain variable region of the humanized anti-human Notch4 antibody heavy chain HK2 in Example 1, light chain variable region is the light chain variable region of the humanized anti-human Notch4 antibody light chain L3 in Example 1, and lysine (Lys) located at the C-terminal of the heavy chain of a common human antibody is deleted in this antibody. Those without the description “(Lys-)” mean that Lys located at the C-terminal of the heavy chain of the human antibody is not deleted.

A further assay has as its target T2, Human Notch4-NRR (Homo sapiens, UniProt Q99466).
T2 construct: Human, monkey, mouse, and rat Notch4-NRR domains were prepared as fusion proteins; secretory alkaline phosphatase (SEAP); 10x His; made in house; host or cells: Expi293F cells
T2 sequence (Q99466 1046-1445 limits assumed): T1 sequence (Q99466 1046-1445 limits assumed)
Briefly: BIACORE kinetic analysis, Antibody B captured, Notch4-NRR-SEAP-His injected. In kind it is binding. On the procedure:
(§1) Kinetic analysis of the interaction of human, cynomolgus monkey, mouse, and rat Notch4-NRR domains with Antibody B was carried out with BIACORE. Antibody B was purified with protein A affinity chromatography from the culture supernatant of a stable CHO cell line transfected with Antibody B. Human, monkey, mouse, and rat Notch4-NRR domains were prepared as fusion proteins with secretory alkaline phosphatase (SEAP) and 10× histidine tag. The genes for these proteins were transfected into Expi293F cells in Opti-MEM (INVITROGEN) using ExpiFectamine 293. These cells were cultured in Expi293 Expression Medium (INVITROGEN). Briefly, cells were diluted to 7.5×10^7 cells/25.5 mL, and transfected by ExpiFectamine 293 reagent on Day 0. About 16 hours after transfection, 150 uL of ExpiFectamine 293 Transfection Enhancer 1 and 1.5 mL of ExpiFectamine 293 Transfection Enhancer 2 were added to each flask. The supernatant was collected on Day 4. These antigens were purified with Ni-NTA Superflow column (QIAGEN). The interaction was analyzed as below. The purified Antibody B was captured by anti-human IgG Fc antibody fixed on a CM5 sensor chip (GE healthcare). The purified Notch4-NRR fusion proteins were injected onto the sensor chip at 8 different concentrations, and the interaction and dissociation thereof were observed as per manufacturer's instructions.
Background: In SPR one partner is held on a chip, and binding of the other changes the refractive index at the surface.

The test system of the next assay is Mouse Notch4-NRR. Described as above. The format is binding. How it is done:
as §1

Assay [2] has as its system Cynomolgus monkey Notch4-NRR. The assay is described as above. The format is binding. How it is done:
as §1

B1: Antibody B: humanized anti-human Notch4 antibody, heavy chain variable region HK3, light chain variable region L3, C-terminal Lys deleted (antibody)
heavy: EVQLVESGGGLVQPGGSLRLSCAASGFTFSSYGMSWVRQAPGKGLELVATINSNGGRTYYPDSVKGRFTISRDNSKNTLYLQMGSLKAEDMAVYYCARDQGFAYWGQGTLVTVSSASTKGPSVFPLAPCSRSTSESTAALGCLVKDYFPEPVTVSWNSGALTSGVHTFPAVLQSSGLYSLSSVVTVPSSNFGTQTYTCNVDHKPSNTKVDKTVERKCCVECPPCPAPPAAAPSVFLFPPKPKDTLMISRTPEVTCVVVDVSHEDPEVQFNWYVDGVEVHNAKTKPREEQFNSTFRVVSVLTVVHQDWLNGKEYKCKVSNKGLPAPIEKTISKTKGQPREPQVYTLPPSREEMTKNQVSLTCLVKGFYPSDIAVEWESNGQPENNYKTTPPMLDSDGSFFLYSKLTVDKSRWQQGNVFSCSVMHEALHNHYTQKSLSLSPG
light: EIVMTQSPATLSVSPGERATLSCKASQDVGTAVAWYQQKPGQAPRLLIYWASTRHTGIPARFSGSGSGTEFTLTISSLQSEDFAVYYCQQYSSYPWTFGQGTKVEIKRTVAAPSVFIFPPSDEQLKSGTASVVCLLNNFYPREAKVQWKVDNALQSGNSQESVTEQDSKDSTYSLSSTLTLSKADYEKHKVYACEVTHQGLSSPVTKSFNRGEC
B1: in the assay on Notch4, the “Notch4 signal inhibitory activity (relative luminescence)” value is “Signal inhibitory activity was confirmed”. Further, in assay [1], the “Rmax1 (RU)” value is on record as 26.2 RU, the “ka” value worked out at 1.66e+06 M⁻¹ s⁻¹ and the “kd” value was 0.00071 s⁻¹. In the assay with Human Notch4-NRR, the “Ka” value is 317000 M⁻¹ s⁻¹ and the “Kd” value amounted to 0.00118 s⁻¹. In the assay on Mouse Notch4-NRR, the “Ka” value came to 601000 M⁻¹ s⁻¹ and the “Kd” value came out at 0.00727 s⁻¹. In addition, in assay [2], the “Ka” value was 295000 M⁻¹ s⁻¹ and the “Kd” value was determined as 0.00106 s⁻¹.

The values are drawn from US9969812B2, “Anti human Notch4 antibody” (Eisai R&D Management Co., Ltd., priority 2015, dated 2018).
